Source: the supplement of paper PMC3334620
Over roughly 33,000 sequences, “E-score (-0.5 to 0.5)” has its median near -0.04; the highest 2% begin near 0.36. This is one part of the list.

Biological target: T1, Hmlalpha2 (UniProt P0CY09)
T1 sequence: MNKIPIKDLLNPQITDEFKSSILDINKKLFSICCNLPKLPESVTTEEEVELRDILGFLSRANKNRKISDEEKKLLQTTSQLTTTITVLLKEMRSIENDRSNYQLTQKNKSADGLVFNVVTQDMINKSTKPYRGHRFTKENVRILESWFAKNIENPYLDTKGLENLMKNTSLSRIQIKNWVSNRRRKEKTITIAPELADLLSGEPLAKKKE
Experiment: PBM E-score (8-mer binding enrichment) (E-score (-0.5 to 0.5)); higher = stronger / more preferred TF binding; most listed sequences are background and not binding sites
Conditions: protein concentration: 200 nM; construct: GST-full length
Method: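 Universal 'all 10-mer' protein binding microarrays (Agilent AMADID 015681) probed with GST-tagged S. cerevisiae TFs (full-length or DBD) made by in vitro transcription/translation (PURExpress), about 100-200 nM. Bound TF was detected with fluorescent anti-GST. Each ungapped 8-mer (which stands for itself and its reverse complement) is scored by the PBM enrichment score (E-score), a modified Wilcoxon-Mann-Whitney statistic from -0.5 to +0.5, computed with the Universal PBM Analysis Suite. Scale: above 0.35 generally sequence-specific binding.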

| Sequence | PBM E-score |
| --- | --- |
| AGGTTGCC | -0.267 |
| AATCTGCT | -0.0528 |
| CTCAATCA | 0.0115 |
| CCTGGCCC | -0.351 |
| ACGTAACG | 0.161 |
| CTAAGTAA | 0.251 |
| AGCGCAAG | -0.155 |
| AGTGGGTC | -0.265 |
| CTCCGTCA | -0.0949 |
| GGTGCCAC | -0.254 |
| TAATGATA | 0.234 |
| AAAATGAT | 0.127 |
| ACGCTCTA | -0.0608 |
| CTTTCCCA | -0.144 |
| CGCTGCGA | -0.117 |
| AGCGTAAC | 0.19 |
| CCGTTACG | 0.0618 |
| GACGAGTC | -0.0709 |
| AAAGTTGG | 0.0805 |
| ACGCCGAT | 0.0555 |
| GAGCGTAA | 0.202 |
| AGCCAACT | -0.00124 |
| AACTGATT | -0.00593 |
| GGAAGACC | -0.337 |
| GCAAAGGC | -0.257 |

| Sequence | PBM E-score |
| --- | --- |
| CACATAAG | 0.117 |
| AGTATACT | 0.043 |
| CACCGGGA | -0.208 |
| ATTAGAAA | 0.0551 |
| GTAGAAGA | -0.00977 |
| CATTTAGC | 0.0542 |
| AATACGAA | 0.216 |
| CCGCCCTA | -0.0665 |
| AACAGCTA | 0.115 |
| GAAGAGAC | -0.0584 |
| CACAACCC | -0.0761 |
| CCATATAA | -0.0218 |
| AGCGTGCG | -0.122 |
| TAGGGACA | -0.107 |
| AAGAAGGG | -0.355 |
| GGAAGAAA | -0.114 |
| GCCAGGAC | -0.269 |
| AAAATATA | 0.0897 |
| AGTTTGGA | 0.169 |
| ATGCAAGG | -0.246 |
| CCCTTTGA | -0.159 |
| ATATAACC | -0.0903 |
| GCCGCACA | -0.0781 |
| GCAGCCCA | -0.281 |
| AAACCTAG | 0.0544 |

| Sequence | PBM E-score |
| --- | --- |
| GATTTGCC | -0.0286 |
| CTATAAAG | -0.181 |
| AATCAGGT | 0.158 |
| GAGCCAAA | -0.0699 |
| TCAACTCA | 0.0758 |
| AATCTCCC | -0.2 |
| AAGTTCAA | 0.153 |
| AGCTACCA | -0.00947 |
| AGCTGTTC | -0.209 |
| CTGTGGCC | -0.164 |
| CAATTAAG | 0.107 |
| AAACAGGT | 0.0742 |
| GACCGTGA | -0.0698 |
| CACCCATC | -0.214 |
| AAAGCAAA | 0.123 |
| CGTACAAC | 0.256 |
| ATGCACGC | 0.133 |
| CAAGAAAC | 0.13 |
| ACATCAGT | 0.0417 |
| ATGCGGGC | -0.0538 |
| CGGTGTTA | 0.253 |
| ACATTTCG | 0.0602 |
| GTCCTGCA | -0.11 |
| CCCCCCGA | -0.394 |
| ATGGTCCG | -0.0121 |

| Sequence | PBM E-score |
| --- | --- |
| GAAAGTTA | 0.183 |
| AATAAACT | 0.102 |
| GACCTATC | -0.245 |
| CATGAGCG | -0.0447 |
| GCCCTAGA | -0.28 |
| AAGCACGC | 0.0885 |
| ATGAGTAG | -0.0182 |
| ACGTTGTC | 0.155 |
| CGAGACAG | 0.0308 |
| ACCAGGCT | -0.121 |
| GGTTGGAA | -0.289 |
| TGCCCACA | -0.101 |
| CAACCCAA | 0.0834 |
| GGCCACTA | -0.112 |
| GCCCCGTA | -0.14 |
| TCCTACAA | 0.171 |
| AGTCGCAG | -0.18 |
| ATTCCATA | -0.0528 |
| AAACTCAG | 0.13 |
| CGCCCGAA | -0.201 |
| CCACCATC | -0.318 |
| CCTCAGTC | -0.311 |
| CTTCAACA | 0.341 |
| GATGAAAA | 0.0728 |
| AGGGCGCG | 0.00904 |

| Sequence | PBM E-score |
| --- | --- |
| AGCAATTC | -0.139 |
| CTTCTTAA | 0.169 |
| AAATGCTC | 0.0399 |
| TGGGCTAA | -0.165 |
| AAGTCGAC | 0.0896 |
| AGGAGCCC | -0.295 |
| CCTCGGCG | -0.124 |
| AACGGTCG | -0.0379 |
| AAAACACA | 0.333 |
| AAAAAAAG | -0.0733 |
| CAACGGTG | -0.155 |
| ATGCAGCA | -0.138 |
| CACCGCGA | -0.194 |
| ACGTCAAT | 0.0383 |
| AAAATTTC | -0.112 |
| ACGGGGTG | -0.115 |
| AGATTGGG | -0.0423 |
| CCTTCACC | -0.223 |
| TGAATTAA | 0.256 |
| ACCGTCCA | -0.166 |
| CAACTATA | 0.131 |
| AGGAATTC | -0.167 |
| AAAACGCT | -0.0306 |
| ACGAGCCG | 0.153 |
| CGACGGCC | -0.00229 |

| Sequence | PBM E-score |
| --- | --- |
| ACAAGCTA | 0.182 |
| ACTAGGTC | -0.0601 |
| GATCGCCC | -0.0101 |
| ATTACCCA | 0.211 |
| AATGTTTA | 0.314 |
| CGATTTAC | 0.176 |
| TCTTATCA | 0.245 |
| AAAGTGCA | -0.0584 |
| ACTGCCCT | -0.238 |
| ACCCATAC | -0.0068 |
| AAAAAGGC | -0.0813 |
| CAAACGGA | -0.11 |
| ACACTGCG | 0.0109 |
| CTACCTCC | -0.143 |
| AAGGAGGG | -0.179 |
| AGACACGC | 0.147 |
| AATGGTAT | 0.115 |
| GAGACGCC | -0.324 |
| GTAACTCA | -0.0411 |
| GACTTGTA | 0.189 |
| TCCAGACA | -0.278 |
| AGCCCAGG | -0.274 |
| CCTCCTCA | -0.184 |
| AACTGAGT | 0.0172 |
| ACAGCTGT | -0.0242 |

| Sequence | PBM E-score |
| --- | --- |
| TAGCTACA | 0.203 |
| TAGCGAAA | -0.106 |
| TCGGCCGA | -0.231 |
| ATCAAAGC | -0.206 |
| ATGTGATG | 0.0776 |
| TCACCGGA | -0.133 |
| GGAGAAAC | -0.183 |
| ATCGCTGA | -0.163 |
| CAAGAGAC | -0.14 |
| ACATAGAT | 0.294 |
| CGCGGCGC | -0.0489 |
| CCCCTTTC | -0.262 |
| CCCCACAC | -0.298 |
| TTCAGCAA | 0.068 |
| ACAACCGC | 0.135 |
| TATCGGCA | -0.136 |
| CCCCAATC | -0.116 |
| ACTCGGAA | -0.0153 |
| CGGGAGTA | -0.023 |
| GCAACAGC | 0.0181 |
| ACCGCTCA | 0.0701 |
| GGGCCCAC | -0.224 |
